# Measured values published in the supplement of paper PMC11417369.
# This is one part of the list.
# Tested on: PF3D7_0420300 AP2 domain 1 (GST-tagged)
# Test: gcPBM binding intensity (ln(normalized median fluorescence intensity)); higher = stronger DNA binding
# Summary of the method: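 Using an Agilent 4 × 180k array, primer-extended double-stranded 36-bp intergenic genomic probes and negative controls were exposed for 1 h to GST-fused P. falciparum DNA-binding domains expressed in E. coli. Binding was carried out in 1× PBS with 1% milk, 0.2 mg/ml BSA, 0.5% salmon testes DNA and 0.03% Triton X-100, and protein was detected with Alexa488 anti-GST antibody and a 488 nm scan. Binding intensity is the highest Masliner-normalised natural-log median intensity across replicate spots of either probe orientation.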
row,Sequence,gcPBM binding intensity (ln)
1,AAAAAAATCACATAAAATACTTTATTTTATATTATA [GTGCAC_negctrl_site372],8.94
2,CACACCCACAAAAACACACACAAAGGTGTTCTTATA [CACACA_site1293],9.51
3,TGTAGTCTGGAGAAACGTACATAGTATCTGGTAACC [XGTACX_site4939],9.22
4,ATAACATTCATATTCACACAAAAATATACTACATAG [CACACA_site4529],9.38
5,TATATATATATATATACACACATATATATATTTATA [CACACA_site627],9.39
6,TATTTATTTTTTTGCACACATATTTTACATTTTAAT [CACACA_site3181],9.76
7,ATTGAAAATTGTTGCACACATAATAATTAAATATAT [CACACA_site1857],9.33
8,ATAAAAAAAGGACACACACACATATATATATATATA [CACACA_site5662],9.93
9,ATATAAAAAGTGTATCGTACATTTACTTATTTTATA [XGTACX_site6249],9.17
10,AAAATTATTAAATATGTACACACGTACATTTTATAA [CACACA_site8750],9.11
11,AAATAAATAATAAATAAATAAATAAAATACCAAATA [GTGCAC_negctrl_site620],9.6
12,ATATATATATATATATGTACATATACACATGTGTGC [XGTACX_site168],9.39
13,TATAAATATGTGTATACACACCTGATAAAGGTATAT [CACACA_site7283],9.55
14,TACTTCTTTTTTATTTATTTTACTTTTTATTCTGTA [CACACA_negctrl_site772],9.5
15,GCTTATGCTCAATATTGTACTTTTTTTATTTATTCA [XGTACX_site8863],9.52
16,ATTTAATTTTTTTTTAAACACACATTTTTTTATTTA [CACACA_site8880],9.36
17,TTCAATTATATTCTTTGTACGAATCTTCTATAAATT [XGTACX_site4346],9.11
18,TATTTTGAAATGGAAAGGATATAGAACTTAAACAAA [CACACA_negctrl_site1530],9.18
19,TTTATAAAAAGCATAACACACACATGTCAATATATA [CACACA_site8286],9.73
20,AACATACGACAATACGCACACATATAAGTACATATT [CACACA_site8584],9.61
21,ATACATTCAAAATATACACACATATATCTATAATAT [CACACA_site6576],9.56
22,TTTCTTTAGTAGAATGTAAAAAATATAATCTTCTTA [TGCATGCA_negctrl_site298],8.7
23,TTATGTAGTATAATGAGTACTAAATATAGATATGTT [XGTACX_site6335],9.33

row,Sequence,gcPBM binding intensity (ln)
1,AATATTATAAATGATACACACTTAAAATACAGACAC [CACACA_site8868],9.84
2,AATTACTTAAATTATTGTACCCTAATGTTAATTTCA [XGTACX_site825],9.3
3,TTTTATATCTACCTTTGTACATATTTATTTTTTTTA [XGTACX_site7872],9.43
4,TTCATAAAAAATGTAGTGCATTGAATAAAATTACAT [GTGCAC_site9393],9.14
5,TAAATTTTTTTTTTTTGTACACAAAAATATAATATT [XGTACX_site8151],8.87
6,TTAATTTTGGTAAATGCATGTAATTAAAAATAAAAA [TGCATGCA_site234],9.05
7,ATATTGAAATTAAAAAAATATATGAACAAATGATGA [CACACA_negctrl_site602],9.4
8,TATAACAAGTAATGGTGTACATTATATTATGTAATA [XGTACX_site2761],9.18
9,CATATGCGTCTTGCCTTGCACACTTTTATGAAAAAA [CACACA_site2055],9.22
10,TAATACTTAAAATGTTGTACATAATAATTTTATATT [XGTACX_site5403],9.08
11,TATATATATATATATACATGCATTTCTCATGTACAT [TGCATGCA_site621],9.14
12,GTCATCATAATCTATTGTACAAAAATTTATACAGAT [XGTACX_site1059],9.18
13,TATAAAAATAAGTATACACACAAAATGCGTAACTTT [CACACA_site1295],9.3
14,TACATTAAACGAATAGTGCAAGAAGTATTCGTATAA [GTGCAC_site9939],9.32
15,ATAAATACATTAAAATGTACATAAAAATATTACTGG [XGTACX_site1484],9.2
16,TTACAAAACCGATGTTGTACATTCAATAGATAATGT [XGTACX_site3806],9.19
17,ATATACCATATGCATGGTACACATTTACAACAAAAA [XGTACX_site3142],9.21
18,AATGTATAAAAGTTTTGTACATATTCTCACACATAT [XGTACX_site965],9.38
19,TAGTTGTGAGTTACATGTACATGTATTTATTTTTTA [XGTACX_site7088],9.51
20,ATAACGTAAACAATGTGGACACATACATAAATATAT [XGTACX_site707],9.47
21,GATAACAATATGTGTACACATTTATATCTCCACATA [CACACA_site5442],9.45
22,TTTATTAAATAAAGCACACACAACAACTTTTCACAA [CACACA_site4132],9.68
